Measurements published in PubChem BioAssay AID1347073 (National Center for Advancing Translational Sciences (NCATS), 2019).
Screen size: about 45,000 compounds; about 200 (0.44%) were called active. Inconclusive results (about 7%) are left out. Calls come from the whole dose curve; as a rule, active = well fitted activation curve with a large enough effect; inconclusive = small, poorly fitted or top-dose-only effect; inactive = no such curve, though single readings can be large or run the other way. This is one part of the list.

Assay: qHTS of TDP-43 Inhibitors: NCGC Sytravon Library Screen; note: 0% is about no effect; nearly all actives have a fitted effect of over 55% in size
Conditions: yeast TDP-43 toxicity rescue, BacTiter-Glo growth, 24 h; series mostly up to 46.1 µM; growth rescue (activation): at the top concentration
Outline: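 TDP-43-expressing yeast, pregrown in raffinose, seeded at OD600 0.02 in galactose medium with compound for 24 hr at 30 deg C. Growth read by BacTiter-Glo luminescence, so rescue of toxicity appears as activation.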

Compound | growth rescue (activation)
c1ccc(-c2csc(Nc3ncccn3)n2)cc1 | inactive: 10.2%
COc1ccc(N2CCN(S(=O)(=O)c3cc(C)ccc3OC)CC2)cc1 | inactive: 28.6%
C/C(Cl)=C\COc1cc(C)nc2c(Br)cccc12 | inactive: 4.39%
CC1CN(C(=O)COC(=O)c2ccc(F)cc2Cl)CC(C)O1 (centres undefined) | inactive: -6.26%
O=C1NC2(CCCCCC2)C(=O)N1Cc1ccccc1Br | inactive: 27%
O=C(COc1ccccc1[N+](=O)[O-])NCc1cccnc1 | inactive: -6.34%
Cc1ccc(NCc2cccnc2)cc1 | inactive: -24.3%
Cc1cc(C)c2[nH]c(=O)c(CN(Cc3cccs3)C(=S)NCc3ccco3)cc2c1 | inactive: 28%
Cc1ccccc1-n1c(SCc2c(C)noc2C)nnc1-c1cccnc1 | inactive: -17.5%
Cc1cccn2c(=O)c3cc(C(=O)N4CCCC(C)C4)sc3nc12 (centres undefined) | inactive: 28.5%
CCOC(=O)C1CCN(c2nc(C)cc(C)c2C#N)CC1 | inactive: 18.8%
Cc1ccc(S(=O)(=O)Nc2cccc(CP(=O)(c3ccccc3)c3ccccc3)c2)cc1 | inactive: 32.1%
COc1ccccc1N(CC(=O)Nc1cccc(C(F)(F)F)c1)S(C)(=O)=O | inactive: 12%
C/C(=N/NC(=O)Nc1ccccc1)c1ccc(C)cc1 | inactive: -7.44%
O=C(c1cc(-c2ccc(Br)cc2)on1)N1CCCC1 | inactive: 3.8%
Cc1cc(NCCCN)nc(-c2ccccc2O)n1 | inactive: -18.1%
CC(=O)Nc1ccc(NC2=C/C(=N/S(=O)(=O)c3cccs3)c3ccccc3C2=O)cc1 | inactive: -5.61%
CC(=O)Nc1ccc(SCC(=O)Nc2ccc3c(c2)OCCO3)cc1 | inactive: -6.69%
Cc1ccc(Cn2c(N)nc3ccccc32)cc1 | inactive: 7.55%
Cc1nnc2n(C)c(=O)c3c4c(sc3n12)COC(C)(C)C4 | inactive: -7.88%
O=C(CSc1nnc(-c2ccncc2)n1-c1ccccc1)Nc1ccc(C(=O)O)cc1 | inactive: -8.19%
CCCn1c(N)c(C(=O)NS(=O)(=O)c2ccc(C)cc2)c(=O)n(C)c1=O | inactive: -10.3%
S=C(NCCCCNC(=S)NCc1ccccc1)NCc1ccccc1 | inactive: -10.1%
CC(=O)NC(Cc1cccc(C)c1)C(=O)NC1CCN(S(=O)(=O)c2ccccc2)CC1 (centres undefined) | inactive: -4.32%
Cc1ccc(S(=O)(=O)/N=C(/Nc2ccc([N+](=O)[O-])cc2)c2ccccc2)cc1 | inactive: -10.3%
COC(=O)CNC(=O)c1cc(-c2ccncc2)nc2ccccc12 | inactive: -12.4%
Cc1cccn2c(CN[C@@H]3CCCC[C@H]3c3ccccc3)c(C(=O)N3CCOCC3)nc12 | inactive: -2.71%

Compound | growth rescue (activation)
C=CCNC(=O)c1ccc(Cn2cc(C(F)(F)F)ccc2=O)cc1 | inactive: 9.51%
CCCOc1cccc(C(=O)NC(=S)Nc2ccc(N3CCN(C)CC3)cc2)c1 | inactive: -2.5%
Nc1cccc(C(=O)OCC(=O)Nc2cccc3c2C(=O)c2ccccc2C3=O)c1 | inactive: -6.71%
C=C(Br)Cn1c(CCCC)nc2ccccc21 | inactive: 1.32%
C/C(CC(=O)Nc1cccnc1)=N/NC(=O)COc1ccc(Cl)cc1Br | inactive: 6.99%
Cc1ccc(-n2ncc3c2CC(C)(C)CC3NC(=O)CCc2c(C)noc2C)cc1 (centres undefined) | inactive: 27.2%
S=C1NCCOCCOCCOCCNC(=S)N2CCOCCOCCN1CCOCCOCC2 | inactive: -8.16%
O=C(CN1C(=O)c2ccccc2C1=O)NCC(=O)OCC(=O)c1cccc([N+](=O)[O-])c1 | inactive: 9.95%
NC(=O)CSc1nc2cc(S(=O)(=O)N3CCOCC3)ccc2o1 | inactive: 10.1%
CCOC(=O)CC(c1ccc(N)cc1)n1c(C)ccc1C (centres undefined) | inactive: 6.66%
CCN1CCN(C(=O)CCc2nnc(CCc3ccc(OC)cc3)o2)[C@@H](C)C1=O | inactive: 15.5%
CCOC(=O)c1c(C)oc2ccc(NS(=O)(=O)c3ccc(C(=O)O)cc3)cc12 | inactive: -0.633%
COc1c(N2CCN(C(=S)Nc3ccccc3F)C(C)C2)c(F)cc2c(=O)c(C(=O)O)cn(C3CC3)c12 (centres undefined) | inactive: 8.98%
CC(=O)c1ccc(N=Nc2ccc(N(C)C)cc2)cc1 | inactive: -15.6%
COc1cc(C(=O)OCCCN=C2NS(=O)(=O)c3ccccc32)cc(OC)c1OC | inactive: 3.53%
Cc1cc(C)c2nc(-c3ccco3)cc(C(=O)O)c2c1 | inactive: 15.8%
COc1cc(/C=C2\SC(=S)N(CCC(=O)N3CCN(C)CC3)C2=O)cc(OC)c1OC | inactive: 5.19%
NS(=O)(=O)c1ccc(NC(=O)c2ccc(S(=O)(=O)N3CCCCCC3)cc2)cc1 | inactive: 1.82%
Cc1ccc(O)c(-c2cc(-c3cccc(Br)c3)n[nH]2)c1 | inactive: -93%
COc1ccc(NC(=O)N[C@@H](CCSC)C(=O)O)cc1Cl | inactive: -1.37%
O=C(O)/C=C/c1ccc(S(=O)(=O)N(CCO)CCO)cc1 | inactive: 14.1%
Cc1ccc(OCC(=O)NCCNC(=O)c2ccco2)cc1 | inactive: 0.954%
COc1ccc(NC(=O)Nc2ccccc2SC)cc1 | inactive: 14.9%
Cn1c(N)c(C(=O)COC(=O)CNS(=O)(=O)c2cccc(Cl)c2)c(=O)n(C)c1=O | inactive: -4.89%
O=C(COC(=O)c1ccc(O)cc1O)NC1CCS(=O)(=O)C1 (centres undefined) | inactive: 36.1%
Cc1ccccc1Cc1c(C)nc2nc(SCC(=O)NCCCN3CCCC3)nn2c1C | inactive: -1.39%
CC(C)=CCN1CCNC(=O)C1CC(=O)NCc1nc(C)c(C)s1 (centres undefined) | inactive: -1.15%
